Results published in publication PMC4242493.
This is one part of the list. The list includes weakly bound sequences.

target: MaxL homodimer (UniProt P61244); test: universal protein-binding microarray (PBM); conditions: PBS-based mixture, 10 nM His-tagged protein dimer, 2% milk, 200 ng/uL BSA, 50 ng/uL salmon testes DNA, 0.02% TX-100; detection with Alexa 488 anti-His …; high values mean tight binding; most listed sequences are background and not binding sites; double strand, one strand shown
Chain of UniProt P61244 (P61244 whole entry): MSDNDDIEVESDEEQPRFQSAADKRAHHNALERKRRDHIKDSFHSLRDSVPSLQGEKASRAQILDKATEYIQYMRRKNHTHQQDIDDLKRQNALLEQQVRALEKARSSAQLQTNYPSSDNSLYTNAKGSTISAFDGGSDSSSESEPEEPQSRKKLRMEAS

Question: For AGCTTTTG, which binding signal (normalized occupancy) is on record?
Answer: 0.0679

Question: For CGGCTTAC, which binding signal (normalized occupancy) is on record?
Answer: 0.0688

Question: Which binding signal (normalized occupancy) does the source give for TCCACCAA here?
Answer: 0.0719

Question: With AAGTAGGA as the sequence, how does the binding signal (normalized occupancy) read?
Answer: 0.0726

Question: How did the binding signal (normalized occupancy) turn out when AGTGGCTG was run?
Answer: 0.0673

Question: With GCAGTCAA as the sequence, how does the binding signal (normalized occupancy) read?
Answer: 0.0712

Question: GCCTCTCC was tested. Which binding signal (normalized occupancy) did it give?
Answer: 0.076

Question: Which binding signal (normalized occupancy) does the source give for ACCCTTGC here?
Answer: 0.0725

Question: For ATCATGTC, which binding signal (normalized occupancy) is on record?
Answer: 0.0895

Question: For CTTGGGTC, which binding signal (normalized occupancy) is on record?
Answer: 0.071

Question: AGATTATC was tested. Which binding signal (normalized occupancy) did it give?
Answer: 0.0807

Question: Which binding signal (normalized occupancy) does the source give for CTCTCGGC here?
Answer: 0.0656

Question: CAATGTTC was tested. Which binding signal (normalized occupancy) did it give?
Answer: 0.0701

Question: With CTAGAACA as the sequence, how does the binding signal (normalized occupancy) read?
Answer: 0.0739

Question: For GACTACAC, which binding signal (normalized occupancy) is on record?
Answer: 0.0821

Question: With CGATGATA as the sequence, how does the binding signal (normalized occupancy) read?
Answer: 0.0772

Question: For GATAAGGC, which binding signal (normalized occupancy) is on record?
Answer: 0.075

Question: Which binding signal (normalized occupancy) does the source give for CGAACACG here?
Answer: 0.0839

Question: Which binding signal (normalized occupancy) does the source give for ATTTAGTC here?
Answer: 0.0723

Question: TGTTTCAA was tested. Which binding signal (normalized occupancy) did it give?
Answer: 0.0773

Question: With CAGGTTGG as the sequence, how does the binding signal (normalized occupancy) read?
Answer: 0.0748

Question: How did the binding signal (normalized occupancy) turn out when GCCGCAGC was run?
Answer: 0.0725

Question: With ACATGACA as the sequence, how does the binding signal (normalized occupancy) read?
Answer: 0.089

Question: For CAGGGCGG, which binding signal (normalized occupancy) is on record?
Answer: 0.0698

Question: With GTGCGCCA as the sequence, how does the binding signal (normalized occupancy) read?
Answer: 0.0809

Question: How did the binding signal (normalized occupancy) turn out when GAAGGACA was run?
Answer: 0.0761

Question: How did the binding signal (normalized occupancy) turn out when GATGTCTA was run?
Answer: 0.0731

Question: AGGGATTA was tested. Which binding signal (normalized occupancy) did it give?
Answer: 0.0762

Question: GCCCAAAC was tested. Which binding signal (normalized occupancy) did it give?
Answer: 0.0713

Question: TCCCATCA was tested. Which binding signal (normalized occupancy) did it give?
Answer: 0.0825

Question: CACCACAC was tested. Which binding signal (normalized occupancy) did it give?
Answer: 0.0898

Question: For TGAATTAA, which binding signal (normalized occupancy) is on record?
Answer: 0.0789

Question: CCCAACGC was tested. Which binding signal (normalized occupancy) did it give?
Answer: 0.0789

Question: How did the binding signal (normalized occupancy) turn out when ACTATCTA was run?
Answer: 0.0759

Question: With GACGACCA as the sequence, how does the binding signal (normalized occupancy) read?
Answer: 0.0733

Question: ACTAAGAG was tested. Which binding signal (normalized occupancy) did it give?
Answer: 0.0737

Question: AGTCACTC was tested. Which binding signal (normalized occupancy) did it give?
Answer: 0.0739

Question: For AGGTTTCG, which binding signal (normalized occupancy) is on record?
Answer: 0.0742

Question: Which binding signal (normalized occupancy) does the source give for TAGCGTAA here?
Answer: 0.0706

Question: How did the binding signal (normalized occupancy) turn out when AGCCCCCG was run?
Answer: 0.072

Question: Which binding signal (normalized occupancy) does the source give for GGTGAAGA here?
Answer: 0.0783

Question: How did the binding signal (normalized occupancy) turn out when ATAACGTA was run?
Answer: 0.0784

Question: How did the binding signal (normalized occupancy) turn out when GTCCTCCA was run?
Answer: 0.073

Question: How did the binding signal (normalized occupancy) turn out when ACGTGCTA was run?
Answer: 0.109

Question: Which binding signal (normalized occupancy) does the source give for CCGTCTAA here?
Answer: 0.0757

Question: Which binding signal (normalized occupancy) does the source give for ACCCAGAG here?
Answer: 0.0694

Question: With CGTGTGAC as the sequence, how does the binding signal (normalized occupancy) read?
Answer: 0.0871

Question: With CAATATCC as the sequence, how does the binding signal (normalized occupancy) read?
Answer: 0.0823

Question: How did the binding signal (normalized occupancy) turn out when CCGATTGC was run?
Answer: 0.0722

Question: With TACCGCGA as the sequence, how does the binding signal (normalized occupancy) read?
Answer: 0.0732

Question: For GTAGGTAA, which binding signal (normalized occupancy) is on record?
Answer: 0.0764

Question: AGCGCCGG was tested. Which binding signal (normalized occupancy) did it give?
Answer: 0.0686

Question: With AACCTAAC as the sequence, how does the binding signal (normalized occupancy) read?
Answer: 0.0728

Question: Which binding signal (normalized occupancy) does the source give for AAATCGAT here?
Answer: 0.0677

Question: For AACCGGGT, which binding signal (normalized occupancy) is on record?
Answer: 0.0731

Question: With AGCCCGCC as the sequence, how does the binding signal (normalized occupancy) read?
Answer: 0.0647

Question: ATGTGGAG was tested. Which binding signal (normalized occupancy) did it give?
Answer: 0.0861

Question: For AGCAATAG, which binding signal (normalized occupancy) is on record?
Answer: 0.0796

Question: With GTCGACGA as the sequence, how does the binding signal (normalized occupancy) read?
Answer: 0.0675

Question: AATGATAT was tested. Which binding signal (normalized occupancy) did it give?
Answer: 0.0814

Question: How did the binding signal (normalized occupancy) turn out when AGTGAGCC was run?
Answer: 0.0749

Question: For AAGAGGGA, which binding signal (normalized occupancy) is on record?
Answer: 0.0761

Question: For CACGCATA, which binding signal (normalized occupancy) is on record?
Answer: 0.0976

Question: With CCTCATGC as the sequence, how does the binding signal (normalized occupancy) read?
Answer: 0.109

Question: How did the binding signal (normalized occupancy) turn out when GCGTTAAA was run?
Answer: 0.0729

Question: With CGAAGGTC as the sequence, how does the binding signal (normalized occupancy) read?
Answer: 0.0691

Question: For GTTAACGA, which binding signal (normalized occupancy) is on record?
Answer: 0.0721

Question: With AACTAGGT as the sequence, how does the binding signal (normalized occupancy) read?
Answer: 0.0712

Question: For ACTAATCA, which binding signal (normalized occupancy) is on record?
Answer: 0.0747

Question: ACCGTCCG was tested. Which binding signal (normalized occupancy) did it give?
Answer: 0.0715

Question: Which binding signal (normalized occupancy) does the source give for GACATATC here?
Answer: 0.0794

Question: AGCGTGGC was tested. Which binding signal (normalized occupancy) did it give?
Answer: 0.108

Question: For AGAGCGAC, which binding signal (normalized occupancy) is on record?
Answer: 0.0679

Question: How did the binding signal (normalized occupancy) turn out when TAAAAAAA was run?
Answer: 0.0771

Question: With AAATAAAC as the sequence, how does the binding signal (normalized occupancy) read?
Answer: 0.0754

Question: With AGAAATGA as the sequence, how does the binding signal (normalized occupancy) read?
Answer: 0.0741

Question: With GAACGGGC as the sequence, how does the binding signal (normalized occupancy) read?
Answer: 0.0687

Question: CTCGGCCC was tested. Which binding signal (normalized occupancy) did it give?
Answer: 0.0689

Question: How did the binding signal (normalized occupancy) turn out when CATCGATG was run?
Answer: 0.0853

Question: For AATTCCGT, which binding signal (normalized occupancy) is on record?
Answer: 0.0746

Question: CCATTGAG was tested. Which binding signal (normalized occupancy) did it give?
Answer: 0.0704

Question: CTTCACTC was tested. Which binding signal (normalized occupancy) did it give?
Answer: 0.0724

Question: ACGACGTA was tested. Which binding signal (normalized occupancy) did it give?
Answer: 0.0786

Question: With GTTACCCA as the sequence, how does the binding signal (normalized occupancy) read?
Answer: 0.0762

Question: For AATAGGGT, which binding signal (normalized occupancy) is on record?
Answer: 0.0784

Question: CGAGCCTC was tested. Which binding signal (normalized occupancy) did it give?
Answer: 0.0732
